Assay results as given in the supplement of paper PMC11417369.
± gives the standard deviation of the averaged measurements. The list shows a part of the results.

system: PfAP2-LT AP2 domain (GST-tagged); assay: gcPBM binding intensity (ln(normalized median fluorescence intensity)); higher = stronger DNA binding
How it was run: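 An Agilent 4 × 180k array carrying primer-extended double-stranded 36-bp intergenic genomic probes and negative controls received GST-tagged P. falciparum DNA-binding domains expressed in E. coli, about 25 μg on average, for 1 h. The binding buffer contained 1× PBS, 1% milk, 0.2 mg/ml BSA, 0.5% salmon testes DNA and 0.03% Triton X-100. Binding intensity is the top Masliner-normalised natural-log median intensity across replicate spots of either probe orientation, read after Alexa488 anti-GST antibody staining and a 488 nm scan.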

In order of rising “gcPBM binding intensity (ln)” value:
1. ATTTTTTTTTTTTTTTTTTTTTTTTGGAGAAAGAGA [CACACA_negctrl_site1119]  8.11 ± 0.4
2. TTAATATATTTAAATATATATAAAATATATAATATG [CACACA_negctrl_site880]  8.35 ± 0.43
3. TAAATCATTTCATGGCATTTACACAAAATTTTTTAA [CACACA_negctrl_site1260]  8.35 ± 0.39
4. TATTATTTTTCCTAATGTACAAAATATATATTTTTA [XGTACX_site2727]  8.36 ± 0.49
5. TCTTCATACGACTAAAAAACATTAGACTGATAAAAA [CACACA_negctrl_site628]  8.39 ± 0.4
6. AATCGATTGGATAATATTTTTTCTCTTAATTTTTTG [GTGCAC_negctrl_site165]  8.39 ± 0.38
7. TTGTGTTTTACATATACATGCAAATTTTTTTTTTTA [TGCATGCA_site303]  8.4 ± 0.47
8. TATTTTTTTTTTATATGTACATAATTTCAAATAAAT [XGTACX_site7747]  8.41 ± 0.33
9. AAAATTATATATTATTGTACATAAAATTTTGACATA [XGTACX_site4886]  8.46 ± 0.42
10. TAACATATTTTTAATACACACTTAAAAAAGTACTTA [CACACA_site4875]  8.47 ± 0.42
11. TATTTATTTATATAAACACACATAAATATAAATATA [CACACA_site6653]  8.47 ± 0.4
12. TCTACATATTAATTATGTACGAATTATTATTAGTAA [XGTACX_site6924]  8.51 ± 0.37
13. TATATTAGAAGAAATTCACACATTCATGTAATCTTA [CACACA_site4706]  8.53 ± 0.42
14. CTTTAACCTTTTTATTGTACTTTTAATATTTTAAAA [XGTACX_site4457]  8.54 ± 0.5
15. CATATTCATAAAAGTTGTACATGCAATTTTTTTTTT [XGTACX_site2261]  8.55 ± 0.48
16. CAATAGTTCTTATGGGTGCAAACCACATATATATAA [GTGCAC_site9606]  8.55 ± 0.53
17. AAAAAAAAAAAAAAATGTACAAAAATTACTATAAAA [XGTACX_site7683]  8.56 ± 0.61
18. AGCTCGGAAAAATTAGCATGCAAAAAAAAAAAAAAA [TGCATGCA_site658]  8.59 ± 0.58
19. TATTAATAAAACCGTTGTACTACATACATAAATATT [XGTACX_site5578]  8.6 ± 0.45
20. TTTTAAATAATACATACATGCATATATACACATATA [TGCATGCA_site8]  8.62 ± 0.51
21. TTAGGTGTATATAATTGTACATTTTGGAAATTATAC [XGTACX_site5492]  8.62 ± 0.43
22. TTTCTTTTTTCATTTACACACAATAATATAAGAATA [CACACA_site3164]  8.62 ± 0.4
23. ATATATCATATTATAGTGCATTTATAATAATATTAT  8.62 ± 0.36
24. TTAAATTGAATTAGTTAACACACAACTTTTATTTCA [CACACA_site8921]  8.63 ± 0.52
25. CCATTTACAAAAAGGAGTACACAAATATATGTTTAA [XGTACX_site649]  8.63 ± 0.51
26. TTCTATATTTTAGCTGATAATATTATGAGCTTCACT [XGTACX_negctrl_site427]  8.68 ± 0.54
27. TTTGAATATATAAATATGCACACTTCTATTATAAAT [CACACA_site3359]  8.69 ± 0.47
28. TATTAATTTATATCAACACACAAAATCAATATACTT [CACACA_site1757]  8.7 ± 0.42
29. TTTATTTATCTGTATACACACTTTAATGAAAAGTTG [CACACA_site5400]  8.71 ± 0.49
30. TATTTATGTTCATATAAACACACGTAAAATTCAAGG [CACACA_site1538]  8.72 ± 0.44
31. TTATAACACATTACATGTACAAATATAAATATATTC [XGTACX_site6503]  8.73 ± 0.39
32. AATATATGGTATAATTGTACAAAAAAAAAAAAAAAA [XGTACX_site1476]  8.74 ± 0.44
33. AGTTTAGAATTTAATACACACAAAAAAAAAAAATTA [CACACA_site7698]  8.74 ± 0.46
34. AAAAATCAATTAGAAGAACACACGTAAATTTTTTTT [CACACA_site2396]  8.74 ± 0.54
35. ATACTATATATATAAGTGCATGTTCATTATACCTAA  8.75 ± 0.35
36. TTTTTTTTGTTGTTGTTGCACTTGATAGGAATGGCT [GTGCAC_site9701]  8.77 ± 0.52
37. ATTATTATTAATAGTACACACTATGGCATTTCAATA [CACACA_site5388]  8.8 ± 0.42
38. ATATATATTTAAAAAAGTACAGAAGAAAATAACCCA [XGTACX_site642]  8.8 ± 0.42
39. AAAAAAATAAAAAGGAACGTCTATAGTTAATTTATT [CACACA_negctrl_site919]  8.8 ± 0.59
40. CTGGAGGATGAAAAAAGTACAAAAGGAGGAAATGTA [XGTACX_site8846]  8.81 ± 0.71
41. TCTTTAATGAACAAATGTACAAGAACAATACCCGCA [XGTACX_site2047]  8.82 ± 0.42
42. AACATAAATATATATAGTACATATATATATATTCAA [XGTACX_site7287]  8.82 ± 0.42
43. AACGTTCAATTTAAATGTACAAATGTATTTAAATAT [XGTACX_site315]  8.82 ± 0.43
44. ATAACTAAATGATATTGTACAAAATAATTATATATT [XGTACX_site1331]  8.84 ± 0.43
45. GTGAAATGGAAAAAAAGTACAGATTACATAAGTATT [XGTACX_site6355]  8.85 ± 0.54
46. TATAGCATAAATATGTGTACATATTTATATGATATT [XGTACX_site6333]  8.85 ± 0.5
47. GTCCCTATAAGGGGAACACACATAAATGGATATATA [CACACA_site6612]  8.88 ± 0.52
48. TCTTATTTAAAAATAGCACACATTATGTATATATAT [CACACA_site2822]  8.9 ± 0.33
49. ATCTTTCATCTACCAAGTACAAATTACTTTTTTTTT [XGTACX_site7001]  8.91 ± 0.49
50. TATTTATTTTTCTGTTGTACTTTTCAACATGTTACA [XGTACX_site7457]  8.91 ± 0.52
51. TTTTGGAATTTTAGCTGTACTTTTCCTATTTTGTAT [XGTACX_site7679]  8.92 ± 0.44
52. CATTATATGATTTATGTGCACATTCATTTATTTTAA  8.93 ± 0.48
53. AGGAAAAACTTGAATGCATGCGCACATTCTAGTTTG [TGCATGCA_site776]  8.93 ± 0.4
54. TATTATTACGTAATATGTACATATATTTATACCACT [XGTACX_site5918]  8.94 ± 0.45
55. AATAAAATAAGAAGCACACAAATATTATATATAAAA [CACACA_site3980]  8.96 ± 0.6
56. TATTATCTGTAGTGTACACATATTATATAGTACTTT [CACACA_site4582]  8.96 ± 0.4
57. TACTTACAGATAATAACACACAAGAAAAAAATAAAA [CACACA_site4716]  8.96 ± 0.49
58. AAATACAAAATTGTTACACACATATTAAGTATGACA [CACACA_site4421]  8.98 ± 0.47
59. TAAATGGGTGTTAATGCACACGATATGTCTATATAT [CACACA_site5321]  8.98 ± 0.38
60. TTTATATACACACAGAAGAACAGAAATATTATATAT [TGCATGCA_negctrl_site483]  8.99 ± 0.4
61. ATAACGATATATGTGCGTACTTATAGAATAAGCAAA [XGTACX_site6743]  9.02 ± 0.47
62. TATATATATATCAAGTGTACTTGTGTTTGTAATATT [XGTACX_site8854]  9.03 ± 0.39
63. TGAAACCATAAAGAATGTACACAGCGGTATAAGTTA [XGTACX_site674]  9.04 ± 0.45
64. TATATATAATATTATACACACATATATGCATAATAT [CACACA_site54]  9.07 ± 0.34
65. TATATATATATATAAGTGCATATAAAAATCGTTCGT  9.08 ± 0.24
66. TTCTTTTCTTCTACATGTACAAATATTATATATATA [XGTACX_site2996]  9.11 ± 0.36
67. TATTTCACAACTTGTCGTACATTAATTGTATTATTT [XGTACX_site997]  9.12 ± 0.39
68. TTTTTTTTTGTTTACACACACAAAATATTATATGTA [CACACA_site2470]  9.12 ± 0.3
69. TATTACACATATTATACACACATATATTATATATAT [CACACA_site4951]  9.18 ± 0.3
70. AATATTTATGGGTGCACACAAACATACAGATATATA [CACACA_site5810]  9.21 ± 0.41
71. TTCTTATATAAATACACACACAAAATATCTACAATG [CACACA_site4568]  9.22 ± 0.3
72. ACAAATCTAAGATAGTGTACATTTATATATATATAT [XGTACX_site8740]  9.23 ± 0.28
73. TATATAACTGTCTTCACACACACATATAAATAAATA [CACACA_site7317]  9.29 ± 0.24
74. ATATATATTATGTGTGTGCACTTTTGTTATTATTAT  9.37 ± 0.3
75. AAAAATATATATAACACACACATAATATATATATAT [CACACA_site2537]  9.4 ± 0.38
76. CGAAATATTATGTACGCACACACATTTTTAATATAT [CACACA_site3852]  9.46 ± 0.42
77. ATATATATATAATAAACACACACATATACATATATG [CACACA_site9145]  9.46 ± 0.16
78. ATATAGATCAGACACACACACATGTTTTAAAACTAT [CACACA_site6186]  9.54 ± 0.38
79. ATATATATATATATATGTACATATATGTATACCTTA [XGTACX_site6791]  9.59 ± 0.13
80. AAGGAATAATATAAAACACACACATAAATATAAATA [CACACA_site9115]  9.6 ± 0.42
81. ATGTTGCACAATGTTACACACACAATATATATCGTT [CACACA_site4833]  9.62 ± 0.26
82. TCAATAAAAAAAAACGCACACACAAATATATTCCAT [CACACA_site1223]  9.63 ± 0.2
83. AAAAAAAACAGACACACACACAAATACATACACAAA [CACACA_site705]  9.72 ± 0.31
84. TACAAATATGGACACACACACATATTTATATTTATA [CACACA_site6420]  9.73 ± 0.4
85. ATATAAATGTATATGACACACATATATATATATATA [CACACA_site889]  9.94 ± 0.099
86. AAAAAACAGACATACACACACACACGGATATTTATA [CACACA_site7570]  9.99 ± 0.24
87. AAAATAAATAAATACACACACACGAATATATATATA [CACACA_site1683]  9.99 ± 0.17
88. TACACAAATATATATATATATATATATATATATATA [XGTACX_negctrl_site305]  10 ± 0.5
89. AAGGATATAACATACACACACACACCGATATATATA [CACACA_site6136]  10 ± 0.29
90. ATAAATACTAGGCACACACACATATATATATATATA [CACACA_site2080]  10.4 ± 0.014
